{"source": "paper PMC9911399", "about": "“Two distinct binding modes provide the RNA-binding protein RbFox with extraordinary sequence specificity”", "binders": {"B1": {"name": "CGAACCU (DNA:RNA)", "RNA": "GGGAGACCGGAAUUCAGAUUGUCCCGAACCUUUAAAUCCCGUCGUAGCCACCA", "DNA 1": "CAATCTGAATTCCGGTCTCCC", "DNA 2": "TGGTGGCTACGACGGGATT"}, "B2": {"name": "UCAACGU (DNA:RNA)", "RNA": "B1 RNA with C25U, G26C, C30G", "DNA 1": "CAATCTGAATTCCGGTCTCCC", "DNA 2": "TGGTGGCTACGACGGGATT"}, "B3": {"name": "CUUUACU (DNA:RNA)", "RNA": "B1 RNA with G26U, A27U, A28U, C29A", "DNA 1": "CAATCTGAATTCCGGTCTCCC", "DNA 2": "TGGTGGCTACGACGGGATT"}, "B4": {"name": "GAUCUAU (DNA:RNA)", "RNA": "B1 RNA with C25G, G26A, A27U, A28C, C29U, C30A", "DNA 1": "CAATCTGAATTCCGGTCTCCC", "DNA 2": "TGGTGGCTACGACGGGATT"}, "B5": {"name": "UGUCUAG (DNA:RNA)", "RNA": "B1 RNA with C25U, A27U, A28C, C29U, C30A, U31G", "DNA 1": "CAATCTGAATTCCGGTCTCCC", "DNA 2": "TGGTGGCTACGACGGGATT"}, "B6": {"name": "UAAUGCA (DNA:RNA)", "RNA": "B1 RNA with C25U, G26A, A28U, C29G, U31A", "DNA 1": "CAATCTGAATTCCGGTCTCCC", "DNA 2": "TGGTGGCTACGACGGGATT"}, "B7": {"name": "UUUUCGU (DNA:RNA)", "RNA": "B1 RNA with C25U, G26U, A27U, A28U, C30G", "DNA 1": "CAATCTGAATTCCGGTCTCCC", "DNA 2": "TGGTGGCTACGACGGGATT"}, "B8": {"name": "AUUUCCU (DNA:RNA)", "RNA": "B1 RNA with C25A, G26U, A27U, A28U", "DNA 1": "CAATCTGAATTCCGGTCTCCC", "DNA 2": "TGGTGGCTACGACGGGATT"}, "B9": {"name": "CAGAUAG (DNA:RNA)", "RNA": "B1 RNA with G26A, A27G, C29U, C30A, U31G", "DNA 1": "CAATCTGAATTCCGGTCTCCC", "DNA 2": "TGGTGGCTACGACGGGATT"}, "B10": {"name": "GCAACGG (DNA:RNA)", "RNA": "B1 RNA with C25G, G26C, C30G, U31G", "DNA 1": "CAATCTGAATTCCGGTCTCCC", "DNA 2": "TGGTGGCTACGACGGGATT"}, "B11": {"name": "AGUAUGG (DNA:RNA)", "RNA": "B1 RNA with C25A, A27U, C29U, C30G, U31G", "DNA 1": "CAATCTGAATTCCGGTCTCCC", "DNA 2": "TGGTGGCTACGACGGGATT"}, "B12": {"name": "CCAUGCA (DNA:RNA)", "RNA": "B1 RNA with G26C, A28U, C29G, U31A", "DNA 1": "CAATCTGAATTCCGGTCTCCC", "DNA 2": "TGGTGGCTACGACGGGATT"}, "B13": {"name": "GCUCCAU (DNA:RNA)", "RNA": "B1 RNA with C25G, G26C, A27U, A28C, C30A", "DNA 1": "CAATCTGAATTCCGGTCTCCC", "DNA 2": "TGGTGGCTACGACGGGATT"}, "B14": {"name": "GGAUGAC (DNA:RNA)", "RNA": "B1 RNA with C25G, A28U, C29G, C30A, U31C", "DNA 1": "CAATCTGAATTCCGGTCTCCC", "DNA 2": "TGGTGGCTACGACGGGATT"}, "B15": {"name": "CUAAUCU (DNA:RNA)", "RNA": "B1 RNA with G26U, C29U", "DNA 1": "CAATCTGAATTCCGGTCTCCC", "DNA 2": "TGGTGGCTACGACGGGATT"}, "B16": {"name": "GUCUCAG (DNA:RNA)", "RNA": "B1 RNA with C25G, G26U, A27C, A28U, C30A, U31G", "DNA 1": "CAATCTGAATTCCGGTCTCCC", "DNA 2": "TGGTGGCTACGACGGGATT"}, "B17": {"name": "GAGCAAA (DNA:RNA)", "RNA": "GGGAGACCGGAAUUCAGAUUGUCCGAGCAAAUUAAAUCCCGUCGUAGCCACCA", "DNA 1": "CAATCTGAATTCCGGTCTCCC", "DNA 2": "TGGTGGCTACGACGGGATT"}, "B18": {"name": "GUACCAA (DNA:RNA)", "RNA": "B17 RNA with A26U, G27A, A29C", "DNA 1": "CAATCTGAATTCCGGTCTCCC", "DNA 2": "TGGTGGCTACGACGGGATT"}, "B19": {"name": "UGGAAAG (DNA:RNA)", "RNA": "B17 RNA with G25U, A26G, C28A, A31G", "DNA 1": "CAATCTGAATTCCGGTCTCCC", "DNA 2": "TGGTGGCTACGACGGGATT"}, "B20": {"name": "AGAUAAU (DNA:RNA)", "RNA": "B1 RNA with C25A, A28U, C29A, C30A", "DNA 1": "CAATCTGAATTCCGGTCTCCC", "DNA 2": "TGGTGGCTACGACGGGATT"}, "B21": {"name": "GCACAAU (DNA:RNA)", "RNA": "B17 RNA with A26C, G27A, A31U", "DNA 1": "CAATCTGAATTCCGGTCTCCC", "DNA 2": "TGGTGGCTACGACGGGATT"}, "B22": {"name": "AAUGAGU (DNA:RNA)", "RNA": "B17 RNA with G25A, G27U, C28G, A30G, A31U", "DNA 1": "CAATCTGAATTCCGGTCTCCC", "DNA 2": "TGGTGGCTACGACGGGATT"}, "B23": {"name": "CAUAGGA (DNA:RNA)", "RNA": "B1 RNA with G26A, A27U, C29G, C30G, U31A", "DNA 1": "CAATCTGAATTCCGGTCTCCC", "DNA 2": "TGGTGGCTACGACGGGATT"}, "B24": {"name": "CAUUCAA (DNA:RNA)", "RNA": "B17 RNA with G25C, G27U, C28U, A29C", "DNA 1": "CAATCTGAATTCCGGTCTCCC", "DNA 2": "TGGTGGCTACGACGGGATT"}, "B25": {"name": "CAAGAUA (DNA:RNA)", "RNA": "B17 RNA with G25C, G27A, C28G, A30U", "DNA 1": "CAATCTGAATTCCGGTCTCCC", "DNA 2": "TGGTGGCTACGACGGGATT"}, "B26": {"name": "GGUAGAU (DNA:RNA)", "RNA": "B1 RNA with C25G, A27U, C29G, C30A", "DNA 1": "CAATCTGAATTCCGGTCTCCC", "DNA 2": "TGGTGGCTACGACGGGATT"}, "B27": {"name": "UCUAUGC (DNA:RNA)", "RNA": "B1 RNA with C25U, G26C, A27U, C29U, C30G, U31C", "DNA 1": "CAATCTGAATTCCGGTCTCCC", "DNA 2": "TGGTGGCTACGACGGGATT"}, "B28": {"name": "GCGCAAG (DNA:RNA)", "RNA": "B17 RNA with A26C, A31G", "DNA 1": "CAATCTGAATTCCGGTCTCCC", "DNA 2": "TGGTGGCTACGACGGGATT"}, "B29": {"name": "UUUGUCC (DNA:RNA)", "RNA": "B1 RNA with C25U, G26U, A27U, A28G, C29U, U31C", "DNA 1": "CAATCTGAATTCCGGTCTCCC", "DNA 2": "TGGTGGCTACGACGGGATT"}, "B30": {"name": "CGCGACC (DNA:RNA)", "RNA": "B1 RNA with A27C, A28G, C29A, U31C", "DNA 1": "CAATCTGAATTCCGGTCTCCC", "DNA 2": "TGGTGGCTACGACGGGATT"}, "B31": {"name": "ACACCUC (DNA:RNA)", "RNA": "B1 RNA with C25A, G26C, A28C, C30U, U31C", "DNA 1": "CAATCTGAATTCCGGTCTCCC", "DNA 2": "TGGTGGCTACGACGGGATT"}}, "note": "Changes are numbered by the printed parent chain; changes in the protein carry UniProt numbers. Some of the results follow."}
{"molecular_target": "T1, RBFOX1 RRM (Homo sapiens, UniProt Q9NWB1 109-208)", "T1 sequence": "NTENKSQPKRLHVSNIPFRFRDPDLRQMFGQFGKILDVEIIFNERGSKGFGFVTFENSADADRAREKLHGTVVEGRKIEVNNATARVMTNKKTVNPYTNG", "experiment": "EMSA; HiTS-Eq, 1 nM pool, 10 min; buffer printed only for the single-RNA assays: 10 mM Tris pH 7.5, 150 mM NaCl, 3.4 mM EDTA, 0.001% NP-40, 30 C", "details": "tags: His6 N-terminal (pET28a); label: 5' 32P", "how_it_was_run": "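Purified RbFox RRM, wild type or mutant, was incubated for 10 min in 50 µL with 1 nM of a 5′-radiolabelled RNA pool carrying 7 randomized nucleotides, whose flanks were annealed to DNA oligonucleotides, over a series of increasing protein concentrations. Unbound RNA was resolved on 8% native PAGE, cut out, reverse-transcribed, barcoded by PCR and sequenced on an Illumina HiSeq 2500. Relative association constants were derived from changes in read counts for each RNA species versus the control reaction and normalised to the cognate motif.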"}
{"binder": "B1", "binding signal": "0.00221 KA relative to UGCAUGU"}
{"binder": "B2", "binding signal": "0.00283 KA relative to UGCAUGU"}
{"binder": "B3", "binding signal": "0.00212 KA relative to UGCAUGU"}
{"binder": "B4", "binding signal": "0.00589 KA relative to UGCAUGU"}
{"binder": "B5", "binding signal": "0.0193 KA relative to UGCAUGU"}
{"binder": "B6", "binding signal": "0.0156 KA relative to UGCAUGU"}
{"binder": "B7", "binding signal": "0.0181 KA relative to UGCAUGU"}
{"binder": "B8", "binding signal": "0.00421 KA relative to UGCAUGU"}
{"binder": "B9", "binding signal": "0.0109 KA relative to UGCAUGU"}
{"binder": "B10", "binding signal": "0.014 KA relative to UGCAUGU"}
{"binder": "B11", "binding signal": "0.00967 KA relative to UGCAUGU"}
{"binder": "B12", "binding signal": "0.00814 KA relative to UGCAUGU"}
{"binder": "B13", "binding signal": "0.00701 KA relative to UGCAUGU"}
{"binder": "B14", "binding signal": "0.015 KA relative to UGCAUGU"}
{"binder": "B15", "binding signal": "0.00336 KA relative to UGCAUGU"}
{"binder": "B16", "binding signal": "0.0141 KA relative to UGCAUGU"}
{"binder": "B17", "binding signal": "0.00616 KA relative to UGCAUGU"}
{"binder": "B18", "binding signal": "0.00123 KA relative to UGCAUGU"}
{"binder": "B19", "binding signal": "0.0254 KA relative to UGCAUGU"}
{"binder": "B20", "binding signal": "0.00177 KA relative to UGCAUGU"}
{"binder": "B21", "binding signal": "0.00472 KA relative to UGCAUGU"}
{"binder": "B22", "binding signal": "0.0108 KA relative to UGCAUGU"}
{"binder": "B23", "binding signal": "0.00268 KA relative to UGCAUGU"}
{"binder": "B24", "binding signal": "0.000181 KA relative to UGCAUGU"}
{"binder": "B25", "binding signal": "0.00153 KA relative to UGCAUGU"}
{"binder": "B26", "binding signal": "0.0134 KA relative to UGCAUGU"}
{"binder": "B27", "binding signal": "0.0108 KA relative to UGCAUGU"}
{"binder": "B28", "binding signal": "0.0193 KA relative to UGCAUGU"}
{"binder": "B29", "binding signal": "0.0149 KA relative to UGCAUGU"}
{"binder": "B30", "binding signal": "0.0104 KA relative to UGCAUGU"}
{"binder": "B31", "binding signal": "0.000397 KA relative to UGCAUGU"}
